Among all 220,000 compounds or so, about 5,700 (2.6%) were called active. Inconclusive results, whose numbers are uncertain, are shown with a selection of clear calls. Calls come from the whole dose curve; as a rule, active = well fitted inhibition curve with a large enough effect; inconclusive = small, poorly fitted or top-dose-only effect; inactive = no such curve, though single readings can be large or run the other way. Potencies of inconclusive entries are doubtful fits and often do not repeat.
Molecular target: Lysine-specific demethylase 5B (Homo sapiens) (UniProt Q9UGL1)
Sequence of UniProt Q9UGL1 (Q9UGL1 whole entry, looked up): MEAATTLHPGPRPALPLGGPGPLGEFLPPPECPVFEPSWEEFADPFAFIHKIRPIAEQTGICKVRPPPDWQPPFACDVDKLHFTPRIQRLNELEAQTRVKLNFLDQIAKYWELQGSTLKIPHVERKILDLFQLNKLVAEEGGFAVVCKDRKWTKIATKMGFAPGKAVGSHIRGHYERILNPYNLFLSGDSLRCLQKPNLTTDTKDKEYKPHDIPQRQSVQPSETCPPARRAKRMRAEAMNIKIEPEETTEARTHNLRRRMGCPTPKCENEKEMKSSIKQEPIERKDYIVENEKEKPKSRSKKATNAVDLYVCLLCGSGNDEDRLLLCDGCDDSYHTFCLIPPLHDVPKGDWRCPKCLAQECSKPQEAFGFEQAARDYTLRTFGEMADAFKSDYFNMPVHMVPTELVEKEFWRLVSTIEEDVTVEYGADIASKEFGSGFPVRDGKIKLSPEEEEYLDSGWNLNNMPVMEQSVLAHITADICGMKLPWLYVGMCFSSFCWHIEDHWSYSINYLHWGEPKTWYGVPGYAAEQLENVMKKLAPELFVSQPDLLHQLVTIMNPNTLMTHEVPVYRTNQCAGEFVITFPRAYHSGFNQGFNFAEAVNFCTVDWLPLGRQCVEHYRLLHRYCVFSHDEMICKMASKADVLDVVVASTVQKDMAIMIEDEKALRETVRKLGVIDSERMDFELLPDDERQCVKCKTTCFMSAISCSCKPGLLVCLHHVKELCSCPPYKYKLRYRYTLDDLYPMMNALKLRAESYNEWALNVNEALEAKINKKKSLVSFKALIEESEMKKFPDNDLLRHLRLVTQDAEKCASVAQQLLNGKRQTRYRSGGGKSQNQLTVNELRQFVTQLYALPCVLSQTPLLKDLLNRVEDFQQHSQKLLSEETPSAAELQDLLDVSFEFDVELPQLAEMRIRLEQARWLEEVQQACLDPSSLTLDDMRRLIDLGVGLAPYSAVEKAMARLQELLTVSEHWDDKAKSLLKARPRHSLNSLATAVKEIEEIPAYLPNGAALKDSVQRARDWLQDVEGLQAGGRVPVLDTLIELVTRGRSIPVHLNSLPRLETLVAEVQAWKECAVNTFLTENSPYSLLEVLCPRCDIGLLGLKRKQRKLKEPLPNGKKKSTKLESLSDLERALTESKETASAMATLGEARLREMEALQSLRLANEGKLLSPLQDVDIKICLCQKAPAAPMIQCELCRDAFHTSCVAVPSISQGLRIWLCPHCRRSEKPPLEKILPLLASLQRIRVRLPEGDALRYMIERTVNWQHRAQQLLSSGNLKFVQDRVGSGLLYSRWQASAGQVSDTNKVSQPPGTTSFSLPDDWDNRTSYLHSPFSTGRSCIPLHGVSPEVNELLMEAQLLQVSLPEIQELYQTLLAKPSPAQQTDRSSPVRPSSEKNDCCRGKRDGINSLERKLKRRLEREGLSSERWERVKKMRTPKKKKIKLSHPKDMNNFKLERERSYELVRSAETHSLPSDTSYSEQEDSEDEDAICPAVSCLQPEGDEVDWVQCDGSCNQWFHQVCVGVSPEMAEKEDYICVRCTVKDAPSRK
Assay: Primary screen for KDM5B Histone Demethylases FDH-coupled qHTS; note: nearly all actives have a fitted effect of over 70% in size; for activity change, negative = inhibition: 0% is about no effect
Conditions: FDH-coupled NADH fluorescence (FDH is formaldehyde dehydrogenase); activity change, negative = inhibition: at 57.7 µM (top of the series) unless noted
Outline: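 KDM5BΔAP (200 nM final) in 50 mM HEPES pH 7.5, 0.01% Tween-20 was preincubated 10 min at RT with compound over a concentration range. Substrate mix (H3K4me3 12.5 µM, α-KG 25 µM, Fe²⁺, ascorbate, NAD⁺, FDH) was added, and NADH fluorescence change over 30 min gave dose-response curves.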
Potency is the fitted concentration of half-maximal effect; tags give direction and shape of the fitted curve.

SMILES | Potency | activity change, negative = inhibition
CN(C(=O)c1cc2nc(-c3ccco3)cc(C(F)(F)F)n2n1)c1ccc(OC(F)(F)Cl)cc1 | inconclusive: 2.51 µM [inhibitor, partial curve, poor fit] | –
Cc1oc(-c2nc(C#N)c(NCc3cccnc3)o2)cc1S(=O)(=O)N1CCCCCC1 | inconclusive: 20 µM [inhibitor, partial curve, poor fit] | –
Cc1ccccc1-n1nc(C)c(CCC(=O)NCC2CCCO2)c1Oc1ccccc1F (stereo unspecified) | inconclusive: 28.2 µM [inhibitor, single point] | –
Cc1ccc(CSc2cn(CC(=O)N3CCCC3)c3ccccc23)cc1 | inconclusive: 31.6 µM [inhibitor, single point] | –
CCC1(C)Cc2ccccc2-c2nc(NCCCO)n(C)c(=O)c21 (stereo unspecified) | inconclusive: 22.4 µM [inhibitor, partial curve, poor fit] | –
CC(=O)Nc1ccc(NC(=O)c2cc(=O)c(OCc3ccccc3F)co2)cc1 | inactive | –
CCOC(=O)c1c(-c2ccc(Br)cc2)csc1NC(=O)c1ccc(F)cc1 | inactive | –
COc1ccc(-n2nc3n(c2=O)CCN(Cc2ccc(C(F)(F)F)cc2)C3)cc1 | inconclusive: 56.2 µM [inhibitor, partial curve, poor fit] | –
CCC(=O)Oc1ccc2c(=O)c(Oc3ccccc3Br)c(C)oc2c1 | inconclusive: 39.8 µM [inhibitor, single point] | –
Cn1c(SCC(=O)N2CCCC2)nc2ccsc2c1=O | inactive | –
O=S(=O)(Nc1nc2n(n1)C(c1ccc(F)cc1)C=C(c1ccccc1)N2)c1ccccc1 (stereo unspecified) | inconclusive: 28.2 µM [inhibitor, partial curve, poor fit] | –
COCC(=O)N1CCC2(CC1)CC(N(C(=O)c1ccccc1)C1CC1)CCO2 (stereo unspecified) | inconclusive: 39.8 µM [inhibitor, single point] | –
COC(=O)c1ccc2c(=O)n(CCCCCC(=O)NCc3ccc(Cl)cc3)c(=O)[nH]c2c1 | inconclusive: 25.1 µM [inhibitor, partial curve, poor fit] | –
CCCCCOc1ccc2c(C)c(CCC(C)C)c(=O)oc2c1 | inconclusive: 31.6 µM [inhibitor, single point] | –
Cc1cc(NC(=O)c2nc3ccccc3nc2N2CCCCC2)ccc1Br | inactive | –
CN(C)C(=O)c1ccc(CC2CCN(C(=O)CC3CCCCC3)CC2)cc1 | inactive | –
CCC(C)c1ccc(OCC(=O)Nc2ccc(OC)cc2)c(-n2cnnc2)c1 (stereo unspecified) | inactive | –
Cc1ccc2c(c1)-c1cc(C)nn1C(c1cc(Br)ccc1O)N2 (stereo unspecified) | inconclusive: 15.8 µM [inhibitor, partial curve, poor fit] | –
CCc1nnc(SCc2cc(C)ccc2C)c2cc3sc(C)cc3n12 | – | inconclusive: -31.1% [inhibitor]
COc1ccc(-c2cc(N3CCCN(C(=O)Cc4cccc(Cl)c4)CC3)n[nH]2)cc1 | inconclusive: 15.8 µM [inhibitor, partial curve, poor fit] | –
CCOC(=O)CCN(CC1CC1)C(=O)Cc1cccs1 | inactive | –

SMILES | Potency | activity change, negative = inhibition
Fc1ccc(NC(=S)N[C@H]2CO[C@H]3[C@@H]2OC[C@@H]3n2nnnc2Oc2ccc3c(c2)OCO3)cc1 | inconclusive: 20 µM [inhibitor, single point] | –
O=C(NCCC1=CCCCC1)c1cc2c(s1)CN(C1CCCC1)C2 | inconclusive: 17.8 µM [inhibitor, single point] | –
COC(=O)[C@@H]1Cc2ncn(Cc3ccc(OC)cc3)c2CN1S(=O)(=O)Cc1ccccc1 | inconclusive: 20 µM [inhibitor, single point] | –
COc1ccc(C(NC(=O)c2nc(-c3ccco3)sc2C)c2nccn2C)cc1 (stereo unspecified) | inconclusive: 22.4 µM [inhibitor, partial curve, poor fit] | –
O=C(Nc1cc(Cl)cc(Cl)c1)c1ccc(F)c(S(=O)(=O)N2CCc3ccccc32)c1 | inconclusive: 28.2 µM [inhibitor, single point] | –
Cc1cccc(OC(=O)CSc2nnc(CNC(=O)c3ccccc3)o2)c1C | – | inconclusive: -33.5% [inhibitor]
COc1ccc(-c2c(C(F)(F)F)oc3cc(OCC#N)ccc3c2=O)cc1OC | inactive | –
Cc1cccc(N2CCN(C(=O)CCc3nnc4n(CC(C)C)c(=O)c5ccccc5n34)CC2)c1C | – | inconclusive: -41.9% [inhibitor]
COc1ccc(-c2cn3c(n2)sc2cc(C(=O)Nc4ccc(C)c(C)c4)ccc23)cc1 | – | inconclusive: -43.6% [inhibitor]
Cc1ccc(/C=C(/C#N)c2nc3ccccc3[nH]2)c(C)c1 | inconclusive: 39.8 µM [inhibitor, single point] | –
O=C(Cc1ccccc1)N(Cc1cccnc1)c1nc2c(F)cc(F)cc2s1 | – | inconclusive: -36.9% [inhibitor]
O=C(CSc1nnc(-c2ccco2)n1C1CCCCC1)N1CCN(c2ncccn2)CC1 | inactive | –
COCC(=O)NC[C@@H]1C=C(C)[C@H](Cc2nnc(-c3cncn3C)o2)C[C@H]1C(C)C | inconclusive: 31.6 µM [inhibitor, partial curve] | –
Cc1nc2ccccc2n1Cc1ccc(Br)cc1 | inconclusive: 20 µM [inhibitor, single point] | –
CCc1cc(C(=O)N2CC[C@@H]3[C@@H](CCC(=O)N3CCN)C2)n(C)n1 | inconclusive: 7.08 µM [inhibitor, partial curve] | –
COc1ccccc1-c1cn(C)c(=O)n2cc(CN3CCNC(=O)C3)nc12 | inconclusive: 25.1 µM [inhibitor, partial curve] | –
Cc1oc(-c2nc(C#N)c(NC(C)C)o2)cc1S(=O)(=O)N(C)Cc1ccccc1 | inconclusive: 1.78 µM [inhibitor, partial curve, poor fit] | –
COCC(=O)N1CCC(Oc2cnc3c(ccn3-c3cncnc3)c2)CC1 | inactive | –
NC(=O)c1cc2ccccc2nc1N | inconclusive: 25.1 µM [inhibitor, partial curve, poor fit] | –
COc1ccc(CNC(=O)c2ccc(N3CCCC3)c(NC(=O)NCc3ccc(C)cc3)c2)cc1 | inconclusive: 25.1 µM [inhibitor, partial curve, poor fit] | –

From PubChem BioAssay AID1347165 (National Center for Advancing Translational Sciences (NCATS), 2019)
